Results as given in PubChem BioAssay AID485294 (National Center for Advancing Translational Sciences (NCATS), 2010).
Among all 370,000 compounds or so, about 150 (0.041%) were called active. Inconclusive means that the source gave no clear call. Such entries were picked first, then a sample of the others. Calls follow the shape of the dose curve; as a rule, active = well fitted inhibition curve with a large enough effect; inconclusive = small, poorly fitted or top-dose-only effect; inactive = flat fitted curve, though single readings scatter. No potency is given beside an inconclusive call; the fits are too rough.

Target: Beta-lactamase (Escherichia coli (strain K12)) (UniProt P00811)
Assay: qHTS Inhibitors of AmpC Beta-Lactamase (assay with detergent); also: nearly all actives have a fitted effect of over 25% in size
Conditions: AmpC hydrolysis of nitrocefin, absorbance 480 nm, 0.01% Triton; series mostly up to 114 µM
Summary of the method: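 20 mM phosphate pH 7.0 + 0.01% (detergent screen) or 0.0001% Triton X-100; 5.3 nM AmpC reagent; cpd preinc 15 min RT; nitrocefin (800 uM stock) to start; A480 q20 s × 4 min; Activity was normalised to no-enzyme and no-compound control wells.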
Potency is read from the fitted curve at half-maximal effect; tags tell the direction and shape of the fitted curve.

Sequence of UniProt P00811 (P00811 whole entry, looked up): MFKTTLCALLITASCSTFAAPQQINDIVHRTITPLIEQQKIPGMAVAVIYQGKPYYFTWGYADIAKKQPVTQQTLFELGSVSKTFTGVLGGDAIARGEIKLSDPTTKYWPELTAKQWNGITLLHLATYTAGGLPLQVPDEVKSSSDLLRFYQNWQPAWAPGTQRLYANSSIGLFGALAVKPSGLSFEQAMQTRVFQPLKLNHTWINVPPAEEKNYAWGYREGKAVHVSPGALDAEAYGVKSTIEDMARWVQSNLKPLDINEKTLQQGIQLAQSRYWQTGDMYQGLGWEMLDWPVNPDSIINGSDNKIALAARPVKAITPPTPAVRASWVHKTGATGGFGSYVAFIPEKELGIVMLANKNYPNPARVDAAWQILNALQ

Q: With COc1ccc(NC(=S)N/N=C/c2ccc(F)cc2)cc1OC as the compound, how does the Potency read?
A: inactive

Q: With Cc1cc(=O)[nH]c(N2CCN(C(c3ccccc3)c3ccccc3)CC2)n1 as the compound, how does the Potency read?
A: inconclusive [inhibitor, full curve, poor fit]

Q: With COC(=O)c1c(NC(=O)CN(c2ccc(C)c(C)c2)S(C)(=O)=O)sc2c1CCCC2 as the compound, how does the Potency read?
A: inconclusive [inhibitor, partial curve]

Q: For CC(C)CC(=O)NC(=S)NNC(=O)c1ccc(NC(=O)C2CCCCC2)cc1, which Potency is on record?
A: inactive

Q: With Cc1ccccc1Cc1c(C)nc2c(C(=O)NCc3ccc4c(c3)OCO4)cnn2c1C as the compound, how does the Potency read?
A: inactive

Q: Which Potency does the source give for CC1CCc2c(c3ccccc3[nH]c2=O)O1 (stereo not drawn) here?
A: inconclusive [inhibitor, single point]

Q: For Cn1c(=O)cc(OCCCC(=O)NCc2ccc(F)cc2Cl)c2ccccc21, which Potency is on record?
A: inconclusive [inhibitor, single point]

Q: For CC(=O)c1c(C)[nH]c(C(=O)/C(C#N)=C/c2cccc(C)c2)c1C, which Potency is on record?
A: inactive

Q: For COc1ccccc1NC(=O)COc1cc(Br)c(CNCCCN2CCOCC2)cc1OC, which Potency is on record?
A: inconclusive [inhibitor, single point]

Q: With COc1cc(C(=O)NC(CCSC)C(=O)OCC(=O)C(C)(C)C)cc(OC)c1OC (stereo not drawn) as the compound, how does the Potency read?
A: inactive

Q: Cc1ccc(OCc2nnc(SCC(=O)Nc3ccc4c(c3)OCCO4)n2Cc2ccco2)cc1 was tested. Which Potency did it give?
A: inconclusive [inhibitor, full curve, poor fit]

Q: Which Potency does the source give for N[C@@H](Cc1cc(I)c(Oc2ccc(O)c(I)c2)c(I)c1)C(=O)O here?
A: inconclusive [inhibitor, full curve, poor fit]

Q: For N#CC1=C(O)C(c2ccccc2)n2c1nc(=O)c1ccccc12 (stereo not drawn), which Potency is on record?
A: inconclusive [inhibitor, full curve, poor fit]

Q: Cc1ccccc1COC[C@H](CC(C)C)N1CCN(C(=O)c2cccc(C(F)(F)F)c2)CCC1=O was tested. Which Potency did it give?
A: inconclusive [inhibitor, full curve, poor fit]

Q: With Brc1ccc(-c2noc(COc3ccc4c(c3)CCC4)n2)o1 as the compound, how does the Potency read?
A: inconclusive [inhibitor, full curve]

Q: Which Potency does the source give for CCCCC1N2CC3([N+](=O)[O-])CN1CC([N+](=O)[O-])(C2)C3(C)C (stereo not drawn) here?
A: inconclusive [inhibitor, partial curve]

Q: For Cc1ccc(OCc2nnc(SCC(=O)NCc3ccco3)n2C)cc1, which Potency is on record?
A: inconclusive [inhibitor, single point]

Q: CC(=O)Nc1cccc(Oc2nc(C(F)(F)F)nc3ccccc23)c1 was tested. Which Potency did it give?
A: inconclusive [inhibitor, full curve, poor fit]

Q: With CCCS(=O)(=O)n1nc(-c2ccc(OC)cc2OC)cc1N as the compound, how does the Potency read?
A: inconclusive [inhibitor, full curve, poor fit]

Q: How did the Potency turn out when COc1ccccc1N1CCN(C(=O)c2n[nH]c3ccccc23)CC1 was run?
A: inconclusive [inhibitor, full curve, poor fit]

Q: Which Potency does the source give for Cc1ccc(CNC(=O)CCNS(=O)(=O)c2cccs2)cc1 here?
A: inconclusive [inhibitor, partial curve, poor fit]

Q: CCCCOC(=O)Cn1c(=O)n(CC(=O)OCCCC)c2ccccc21 was tested. Which Potency did it give?
A: inconclusive [inhibitor, full curve]

Q: Which Potency does the source give for S=C(NCc1ccco1)N/N=C/c1ccccc1Cl here?
A: inconclusive [inhibitor, partial curve]

Q: Which Potency does the source give for Cc1ccc(/C=N/N2CCN(C3c4ccccc4-c4ccccc43)CC2)o1 here?
A: inactive

Q: With COc1ccccc1Nc1nc(N)nc(CSc2nccc(C)n2)n1 as the compound, how does the Potency read?
A: inconclusive [inhibitor, partial curve, poor fit]

Q: How did the Potency turn out when CN(C)S(=O)(=O)c1cc(C(=O)Nc2ccn(C)n2)c(Cl)cc1Cl was run?
A: inconclusive [inhibitor, full curve, poor fit]

Q: For Cc1ccccc1C1CC(c2ccccc2)Nc2ncnn21 (stereo not drawn), which Potency is on record?
A: inconclusive [inhibitor, full curve, poor fit]

Q: With CC(C)c1onc(C(=O)N2CCN(Cc3ccccc3)CC2)c1[N+](=O)[O-] as the compound, how does the Potency read?
A: inconclusive [inhibitor, full curve]

Q: With COc1ccc(C)cc1NC(=O)CSc1nnc(CC(=O)Nc2cccc(C(F)(F)F)c2)n1C as the compound, how does the Potency read?
A: inconclusive [inhibitor, full curve, poor fit]

Q: CCOC(=O)c1ccc(NC(=O)Cn2nc(C)c3ccccc3c2=O)cc1 was tested. Which Potency did it give?
A: inconclusive [inhibitor, full curve, poor fit]

Q: O=C(Nc1cccc(Cl)c1)OC1CN2CCC1CC2 (stereo not drawn) was tested. Which Potency did it give?
A: inactive

Q: How did the Potency turn out when COc1ccc(NS(=O)(=O)CC(C)C)c(OC)c1 was run?
A: inconclusive [inhibitor, single point]

Q: How did the Potency turn out when Cc1ccc(S(=O)(=O)c2ccc([N+](=O)[O-])cn2)cc1 was run?
A: inactive

Q: With Cc1ccc(CCNC(=O)Cc2ccc(NC3=NC4CS(=O)(=O)CC4S3)cc2)cc1 (stereo not drawn) as the compound, how does the Potency read?
A: inactive

Q: For Cc1ccc(NC(=O)CCc2c(C)nc3c(-c4ccc(F)cc4)c(C)nn3c2C)cc1F, which Potency is on record?
A: inactive

Q: For COC(=O)c1c(NC(=O)C2CC=CCC2C(=O)O)sc2c1CCCCC2 (stereo not drawn), which Potency is on record?
A: inconclusive [inhibitor, full curve, poor fit]

Q: O=c1c2cccc(Cl)c2nc2n1Cc1ccccc1-2 was tested. Which Potency did it give?
A: inactive

Q: Which Potency does the source give for O=C(c1ccco1)N1CCN(C(=O)C2CC(c3ccc(F)cc3)=NO2)CC1 (stereo not drawn) here?
A: inconclusive [inhibitor, full curve, poor fit]

Q: How did the Potency turn out when COc1ccc(S(=O)(=O)N2CCC(C(=O)Nc3ccc(F)cc3)CC2)c2cccnc12 was run?
A: inactive

Q: With CCn1c(SCC(=O)OC)nnc1-c1ccncc1 as the compound, how does the Potency read?
A: inconclusive [inhibitor, single point]

Q: How did the Potency turn out when O=C(Nc1cccc([N+](=O)[O-])c1)c1ccc(-c2ccccc2)cc1 was run?
A: inconclusive [inhibitor, single point]

Q: Which Potency does the source give for O=c1c2ccccc2nc2n1CCCCN2 here?
A: inconclusive [inhibitor, full curve, poor fit]

Q: Which Potency does the source give for COc1cc(NC(=O)CN2CCN(c3ccc(F)cc3)CC2)cc(OC)c1 here?
A: inactive

Q: For O=C(Oc1nsnc1N1CCOCC1)c1ccccc1, which Potency is on record?
A: inconclusive [inhibitor, single point]

Q: Cc1ccc([N+](=O)[O-])cc1-c1ccc(/C=N/NC(=O)c2cc3c(ccc4ccccc43)o2)o1 was tested. Which Potency did it give?
A: inactive

Q: Which Potency does the source give for COc1ccc(OC)c(S(=O)(=O)N2Cc3ccccc3CC2C(=O)O)c1 (stereo not drawn) here?
A: inconclusive [inhibitor, single point]

Q: With CC1=C(C(=O)OCC2CCCO2)C(c2cccc(C(F)(F)F)c2)C2=C(CC(c3ccco3)CC2=O)N1 (stereo not drawn) as the compound, how does the Potency read?
A: inactive

Q: How did the Potency turn out when CC(=O)Nc1ccc(NC(=O)C(C)Sc2nnc(C3CC3)n2-c2ccccc2)cc1 (stereo not drawn) was run?
A: inconclusive [inhibitor, partial curve, poor fit]

Q: With Nc1nc(-c2ccccc2)cc(N2CCCCC2)n1 as the compound, how does the Potency read?
A: inconclusive [inhibitor, full curve, poor fit]

Q: How did the Potency turn out when Nc1ncc(Br)cc1S(=O)(=O)NCCC(=O)N1CCN(c2ccccc2)CC1 was run?
A: inactive

Q: Which Potency does the source give for Nc1nnc(CCC2CCCCC2)s1 here?
A: inconclusive [inhibitor, full curve, poor fit]

Q: How did the Potency turn out when CC1(C)CC(=O)C/C(=N/NC(=O)c2ccc(-c3ccccc3)cc2)C1 was run?
A: inconclusive [inhibitor, full curve, poor fit]

Q: Which Potency does the source give for Cc1scc(-c2n[nH]c(=S)n2Cc2ccccc2)c1C here?
A: inconclusive [inhibitor, partial curve, poor fit]

Q: Which Potency does the source give for CC(=O)Cc1ccccc1OC(=O)c1ccco1 here?
A: inconclusive [inhibitor, full curve, poor fit]

Q: With CC1(C(=O)CSc2ncn[nH]2)CCC(=O)O1 (stereo not drawn) as the compound, how does the Potency read?
A: inconclusive [inhibitor, partial curve, poor fit]

Q: How did the Potency turn out when Cc1cc(C(C)(C)C)ccc1OCC(=O)N/N=C\c1c(C)n(C)n(-c2ccccc2)c1=O was run?
A: inactive

Q: Which Potency does the source give for Cc1ccc(Nc2nc(N)c([N+](=O)[O-])c(NCCO)n2)cc1 here?
A: inactive

Q: How did the Potency turn out when O=C(c1cc2ccccc2oc1=O)N1CCOCC1 was run?
A: inconclusive [inhibitor, partial curve]

Q: With CCc1ccc2[nH]c(=O)c(C(c3nnnn3CCOC)N3CCN(c4ccccc4)CC3)cc2c1 (stereo not drawn) as the compound, how does the Potency read?
A: inactive

Q: Which Potency does the source give for O=C(CSc1nc2ccccc2n1S(=O)(=O)c1ccccc1)N1CCCCC1 here?
A: inconclusive [inhibitor, full curve]

Q: Which Potency does the source give for CCCOCCc1nnc(N)s1 here?
A: inconclusive [inhibitor, full curve]

Q: For COc1ccc(CC(C)N2CCN(c3ccccc3)CC2)cc1OC (stereo not drawn), which Potency is on record?
A: inconclusive [inhibitor, full curve, poor fit]

Q: How did the Potency turn out when COCCCNC(=O)c1sc2ncnc(N3CCc4ccccc4C3)c2c1C was run?
A: inconclusive [inhibitor, partial curve, poor fit]

Q: For C=CCn1c(C2CCCCC2)n[nH]c1=S, which Potency is on record?
A: inconclusive [inhibitor, full curve, poor fit]

Q: How did the Potency turn out when COc1ccc(C(=O)NC2CCSc3ccccc32)cc1 (stereo not drawn) was run?
A: inactive

Q: Which Potency does the source give for CCOC(=O)C(NC(C)=O)(N1CCOCC1)C(F)(F)F (stereo not drawn) here?
A: inconclusive [inhibitor, full curve, poor fit]

Q: With O=C(O)COc1ccc(/C=N/n2cnc3scc(-c4cccs4)c3c2=O)cc1 as the compound, how does the Potency read?
A: inconclusive [inhibitor, full curve, poor fit]

Q: With COc1ccc(-c2cc(=O)[nH][nH]2)cc1OC as the compound, how does the Potency read?
A: inactive
